Results from PubChem BioAssay (NCATS).
Inconclusive results are not listed. Not every entry of the source has a single result; some have several. This is not the full list of results. The source may hold further records. Values that stand side by side repeat one measurement (runs, samples, wells, individuals or studies).

Experiment: qHTS Assay for Lipid Storage Modulators (AID 1519)
Details: Drosophila S3 cells, BODIPY lipid droplet/cell ratio, laser cytometry, cells loaded with oleic acid
Method in brief: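 Cells seeded at 5,000 per well were treated with compounds over a concentration series and loaded with oleic acid (400 uM, as added). Lipid droplet fluorescence (488 nm excitation, 500-530 nm channel) was read by laser-scanning cytometry and normalized to 20 uM Triacsin C.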

## O=C(O)c1cc(=O)c2ccccc2[nH]1
Measured here: cell count channel max response
  max response: 1.51, 0.0631, 20.5, -13.8% [separate samples]
Measured here: lipid channel max response
  max response: 16.6, 10.3, 23.2, -9.44% [separate samples]
